Data as given in the supplement of paper PMC8728848.
This is one part of the list.

Assays:
Assay in all cases: glycan array binding signal (z-score within array); higher = stronger binding
Conditions in all cases: glycan notation: IUPAC condensed, linker removed
Gal6S(b1-4)Glc6S = molecular target: Gal6S(b1-4)Glc6S
How it was run: (§1)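 Negative Z-scores can be read as non-binding. The Z-score is calculated within each array and then averaged across arrays of one protein sequence at different concentrations or buffers and across linkers. Arrays, 3228 in all, were curated from the Consortium for Functional Glycomics database and kept only where the protein sequence was available.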

Gal6S(b1-4)GlcNAc = molecular target: Gal6S(b1-4)GlcNAc
How it was run: as §1

Gal6S(b1-4)GlcNAc6S = molecular target: Gal6S(b1-4)GlcNAc6S
How it was run: as §1

GalNAc(a1-3)Gal = molecular target: GalNAc(a1-3)Gal
How it was run: as §1

GalNAc(a1-3)GalNAc = molecular target: GalNAc(a1-3)GalNAc
How it was run: as §1

[1] = molecular target: GalNAc(a1-3)GalNAc(b1-3)Gal(a1-4)Gal(b1-4)Glc
How it was run: as §1

[2] = molecular target: GalNAc(a1-3)GalNAc(b1-3)Gal(a1-4)Gal(b1-4)GlcNAc
How it was run: as §1

GalNAc(b1-3)Gal = molecular target: GalNAc(b1-3)Gal
How it was run: as §1

[3] = molecular target: GalNAc(b1-3)Gal(a1-4)Gal(b1-4)GlcNAc
How it was run: as §1

[4] = molecular target: GalNAc(b1-3)Gal(a1-4)Gal(b1-4)GlcNAc(b1-3)Gal(b1-4)Glc
How it was run: as §1

[5] = molecular target: GalNAc(b1-3)Gal(a1-6)Gal(b1-4)Glc
How it was run: as §1

GalNAc(b1-3)GalNAc = molecular target: GalNAc(b1-3)GalNAc
How it was run: as §1

GalNAc(b1-3)GlcNAc = molecular target: GalNAc(b1-3)GlcNAc
How it was run: as §1

GalNAc(b1-4)Gal(b1-4)Glc = molecular target: GalNAc(b1-4)Gal(b1-4)Glc
How it was run: as §1

GalNAc(b1-4)GlcNAc = molecular target: GalNAc(b1-4)GlcNAc
How it was run: as §1

[6] = molecular target: GalNAc(b1-4)GlcNAc(b1-2)Man
How it was run: as §1

[7] = molecular target: GalNAc(b1-4)GlcNAc(b1-2)Man(a1-3)[GalNAc(b1-4)GlcNAc(b1-2)Man(a1-6)]Man(b1-4)GlcNAc(b1-4)GlcNAc
How it was run: as §1

[8] = molecular target: GalNAc(b1-4)GlcNAc(b1-3)GalNAc(b1-4)GlcNAc
How it was run: as §1

GalNAc(b1-4)GlcNAc6S = molecular target: GalNAc(b1-4)GlcNAc6S
How it was run: as §1

GalNAc(b1-6)GalNAc = molecular target: GalNAc(b1-6)GalNAc
How it was run: as §1

GalNAc3S(b1-4)GlcNAc = molecular target: GalNAc3S(b1-4)GlcNAc
How it was run: as §1

GalNAc3S(b1-4)GlcNAc3S = molecular target: GalNAc3S(b1-4)GlcNAc3S
How it was run: as §1

[9] = molecular target: GalNAc3S(b1-4)[Fuc(a1-3)]GlcNAc
How it was run: as §1

GalNAc4S6S(b1-4)GlcNAc = molecular target: GalNAc4S6S(b1-4)GlcNAc
How it was run: as §1

GalNAc6S(b1-4)GlcNAc = molecular target: GalNAc6S(b1-4)GlcNAc
How it was run: as §1

Glc(a1-4)Glc = molecular target: Glc(a1-4)Glc
How it was run: as §1

[10] = molecular target: Glc(a1-4)Glc(a1-4)Glc(a1-4)Glc
How it was run: as §1

Glc(a1-6)Glc(a1-6)Glc = molecular target: Glc(a1-6)Glc(a1-6)Glc
How it was run: as §1

[11] = molecular target: Glc(a1-6)Glc(a1-6)Glc(a1-6)Glc
How it was run: as §1

Glc(b1-4)Glc = molecular target: Glc(b1-4)Glc
How it was run: as §1

Glc(b1-6)Glc = molecular target: Glc(b1-6)Glc
How it was run: as §1

GlcA(b1-3)Gal = molecular target: GlcA(b1-3)Gal
How it was run: as §1

GlcA(b1-3)GlcNAc = molecular target: GlcA(b1-3)GlcNAc
How it was run: as §1

GlcA(b1-6)Gal = molecular target: GlcA(b1-6)Gal
How it was run: as §1

[12] = molecular target: GlcA3S(b1-3)Gal(b1-4)GlcNAc(b1-2)Man
How it was run: as §1

[13] = molecular target: GlcA3S(b1-3)Gal(b1-4)GlcNAc(b1-3)Gal(b1-4)Glc
How it was run: as §1

[14] = molecular target: GlcNAc(a1-3)Gal(b1-4)GlcNAc
How it was run: as §1

B1: Clec18C (Homo sapiens) (protein)
chain: MLHPETSPGRGHLLAVLLALLGTAWAEVWPPQLQEQAPMAGALNRKESFLLLSLHNRLRSWVQPPAADMRRLDWSDSLAQLAQARAALCGTPTPSLASGLWRTLQVGWNMQLLPAGLVSFVEVVSLWFAEGQRYSHAAGECARNATCTHYTQLVWATSSQLGCGRHLCSAGQAAIEAFVCAYSPRGNWEVNGKTIVPYKKGAWCSLCTASVSGCFKAWDHAGGLCEVPRNPCRMSCQNHGRLNISTCHCHCPPGYTGRYCQVRCSLQCVHGRLREEECSCVCDIGYGGAQCATKVHFPFHTCDLRIDGDCFMVSSEADTYYRARMKCQRKGGVLAQIKSQKVQDILAFYLGRLETTNEVIDSDFETRNFWIGLTYKTAKDSFRWATGEHQAFTSFAFGQPDNHGFGNCVELQASAAFNWNNQRCKTRNRYICQFAQEHISRWGPGS
With B1 the “glycan array binding signal (z-score)” value (Gal6S(b1-4)Glc6S) was -0.432, the “glycan array binding signal (z-score)” value (Gal6S(b1-4)GlcNAc) was 0.35 and the “glycan array binding signal (z-score)” value (Gal6S(b1-4)GlcNAc6S) was -0.237. For the same binder, the “glycan array binding signal (z-score)” value (GalNAc(a1-3)Gal) was 0.145, the “glycan array binding signal (z-score)” value (GalNAc(a1-3)GalNAc) was 0.214 and the “glycan array binding signal (z-score)” value [1] was -0.549. The “glycan array binding signal (z-score)” value [2] was -0.49, the “glycan array binding signal (z-score)” value (GalNAc(b1-3)Gal) was -0.044 and the “glycan array binding signal (z-score)” value [3] was -0.15. The “glycan array binding signal (z-score)” value [4] was 2.65, the “glycan array binding signal (z-score)” value [5] was -0.087 and the “glycan array binding signal (z-score)” value (GalNAc(b1-3)GalNAc) was -0.515. For the same binder, the “glycan array binding signal (z-score)” value (GalNAc(b1-3)GlcNAc) was 3.98, the “glycan array binding signal (z-score)” value (GalNAc(b1-4)Gal(b1-4)Glc) was -0.592 and the “glycan array binding signal (z-score)” value (GalNAc(b1-4)GlcNAc) was 1.42. For the same binder, the “glycan array binding signal (z-score)” value [6] was -0.321, the “glycan array binding signal (z-score)” value [7] was 0.041 and the “glycan array binding signal (z-score)” value [8] was 0.286. For the same binder, the “glycan array binding signal (z-score)” value (GalNAc(b1-4)GlcNAc6S) was -0.4, the “glycan array binding signal (z-score)” value (GalNAc(b1-6)GalNAc) was -0.463 and the “glycan array binding signal (z-score)” value (GalNAc3S(b1-4)GlcNAc) was -0.581. The “glycan array binding signal (z-score)” value (GalNAc3S(b1-4)GlcNAc3S) was -0.501, the “glycan array binding signal (z-score)” value [9] was -0.342 and the “glycan array binding signal (z-score)” value (GalNAc4S6S(b1-4)GlcNAc) was 0.445. The “glycan array binding signal (z-score)” value (GalNAc6S(b1-4)GlcNAc) was -0.304, the “glycan array binding signal (z-score)” value (Glc(a1-4)Glc) was -0.479 and the “glycan array binding signal (z-score)” value [10] was -0.525. The “glycan array binding signal (z-score)” value (Glc(a1-6)Glc(a1-6)Glc) was -0.619, the “glycan array binding signal (z-score)” value [11] was -0.39 and the “glycan array binding signal (z-score)” value (Glc(b1-4)Glc) was -0.372. For the same binder, the “glycan array binding signal (z-score)” value (Glc(b1-6)Glc) was -0.483, the “glycan array binding signal (z-score)” value (GlcA(b1-3)Gal) was -0.334 and the “glycan array binding signal (z-score)” value (GlcA(b1-3)GlcNAc) was -0.386. The “glycan array binding signal (z-score)” value (GlcA(b1-6)Gal) was -0.412, the “glycan array binding signal (z-score)” value [12] was -0.539 and the “glycan array binding signal (z-score)” value [13] was -0.395. The “glycan array binding signal (z-score)” value [14] was -0.449.
